# Source: ChEMBL document CHEMBL5606458, “ASAP - ZIKV NS2B-NS3 protease fluorescence single point” (2024)
# Among all 2,700 compounds or so, about 160 (5.9%) showed an effect of 50% or more. The list shows a part of the results. Where a SMILES comes first, the peptide text is derived from it. The star is where a group is joined. Boc = CC(C)(C)OC(=O)*
# Biological target: Nonstructural protein 3 (Zika virus) (UniProt A0A024AXB9)
# [1] = PRVABC59, Concentration 50.0 uM, Number of replicates 1.0
# [2] = PRVABC59, Concentration 15.0 uM, Number of replicates 1.0
# UniProt A0A024AXB9, sequence (A0A024AXB9 as listed by the source): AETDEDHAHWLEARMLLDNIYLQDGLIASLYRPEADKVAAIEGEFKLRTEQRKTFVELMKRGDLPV
smiles,measurement,setting,value
CC1(C)CC(=O)CC(C)(C)N1C(=O)C1CCN(c2ccc(C=O)cc2)CC1,inhibition,[1],25.4%
Cc1cc(CO)c2cccc(NCc3sccc3C)c2n1,inhibition,"PRVABC59, Concentration 49.95 uM, Number of replicates 2.0, Standard deviation 0.13621007965038606 %",0.578%
same,inhibition,"PRVABC59, Concentration 99.9 uM, Number of replicates 2.0, Standard deviation 0.14629971908253026 %",-1.27%
CN(CCc1ccc([N+](=O)[O-])cc1)C(=O)c1cc(Cl)ccc1NS(=O)(=O)c1ccc(Oc2ccccc2Cl)cc1,inhibition,[2],11.9%
CCOc1cc(CNC(=O)[C@]2(c3ccc(F)cc3)CCCNC2)ccc1O,inhibition,"PRVABC59, Concentration 49.5 uM, Number of replicates 2.0, Standard deviation 1.0122740724027686 %",-1.28%
same,inhibition,"PRVABC59, Concentration 99.01 uM, Number of replicates 2.0, Standard deviation 1.3294936869558769 %",0.697%
same,inhibition,"PRVABC59, Concentration 198.0 uM, Number of replicates 2.0, Standard deviation 1.9942405146287472 %",2.66%
COc1cccc(CN(C(=O)c2cc(Cl)ccc2NS(=O)(=O)c2ccc(Oc3ccccc3Cl)cc2)C23CC4CC(CC(C4)C2)C3)c1,inhibition,[2],27.2%
Cn1cc([C@@H](NC(=O)OCc2ccccc2)C(=O)Nc2cccc(CN)c2)cn1,inhibition,"PRVABC59, Concentration 49.5 uM, Number of replicates 2.0, Standard deviation 1.7191102708218762 %",1.72%
same,inhibition,"PRVABC59, Concentration 99.01 uM, Number of replicates 2.0, Standard deviation 1.6791311190235945 %",4.67%
same,inhibition,"PRVABC59, Concentration 198.0 uM, Number of replicates 2.0, Standard deviation 2.8403482765537995 %",9.86%
Cc1cc(CO)c2cccc(Cc3ccccc3NC(=O)c3ccc(N)nn3)c2n1,inhibition,"PRVABC59, Concentration 49.95 uM, Number of replicates 2.0, Standard deviation 1.8729957904336396 %",-1.22%
same,inhibition,"PRVABC59, Concentration 99.9 uM, Number of replicates 2.0, Standard deviation 1.8933541091104023 %",6.56%
O=C(Nc1cc(Cl)c(F)cc1F)c1cc(Cl)ccc1NS(=O)(=O)c1ccc(Oc2ccccc2Cl)cc1,inhibition,[2],26.5%
CC(C)c1cc(CNC(=O)[C@]2(c3ccc(F)cc3)CCCNC2)[nH]n1,inhibition,"PRVABC59, Concentration 49.5 uM, Number of replicates 2.0, Standard deviation 3.8758354422703674 %",3.44%
same,inhibition,"PRVABC59, Concentration 99.01 uM, Number of replicates 2.0, Standard deviation 0.40934620854023696 %",3.54%
same,inhibition,"PRVABC59, Concentration 198.0 uM, Number of replicates 2.0, Standard deviation 1.2876270201571711 %",2.97%
Cn1cccc(CN2CCC(c3c[nH]c4cccnc34)CC2)c1=O,inhibition,"PRVABC59, Concentration 49.5 uM, Number of replicates 2.0, Standard deviation 0.07177165759495889 %",-0.869%
same,inhibition,"PRVABC59, Concentration 99.01 uM, Number of replicates 2.0, Standard deviation 0.38070186159308106 %",1.77%
same,inhibition,"PRVABC59, Concentration 198.0 uM, Number of replicates 2.0, Standard deviation 0.010921765735719036 %",3.27%
COc1ccc(OC)c(CN2CCN(C(=O)c3cc(Cl)ccc3NS(=O)(=O)c3ccc(Oc4ccccc4Cl)cc3)CC2)c1,inhibition,[2],17%
Cc1cnccc1CN1CCC(c2c[nH]c3cccnc23)CC1,inhibition,"PRVABC59, Concentration 49.5 uM, Number of replicates 2.0, Standard deviation 5.559663785413653 %",0.299%
same,inhibition,"PRVABC59, Concentration 99.01 uM, Number of replicates 2.0, Standard deviation 3.2336290336723508 %",-1.65%
same,inhibition,"PRVABC59, Concentration 198.0 uM, Number of replicates 2.0, Standard deviation 2.7253763099694166 %",-1.24%
Cc1[nH]c(=O)c(NC(=O)C2CCN(c3ccc(C=O)cc3)CC2)cc1Br,inhibition,[1],14.7%
COCCN(C(=O)c1cc(Cl)ccc1NS(=O)(=O)c1ccc(Oc2ccccc2Cl)cc1)C1CCN(C)CC1,inhibition,[2],16.9%
CSCC[C@H](NC(=O)OC(C)(C)C)C(=O)N1CCC[C@H]1C(=O)O (Boc-Met-Pro-OH),inhibition,"PRVABC59, Concentration 49.5 uM, Number of replicates 2.0, Standard deviation 1.4430750920306277 %",-1.43%
same,inhibition,"PRVABC59, Concentration 99.01 uM, Number of replicates 2.0, Standard deviation 1.380895888569354 %",-2.23%
same,inhibition,"PRVABC59, Concentration 198.0 uM, Number of replicates 2.0, Standard deviation 1.8524213848645616 %",-1.15%
O=C(NCCc1ccn[nH]1)c1cccc2c1NC(=O)[C@]1(CCCN1)C2,inhibition,"PRVABC59, Concentration 49.5 uM, Number of replicates 2.0, Standard deviation 0.0 %",0.758%
same,inhibition,"PRVABC59, Concentration 99.01 uM, Number of replicates 2.0, Standard deviation 1.791897288144311 %",2.31%
same,inhibition,"PRVABC59, Concentration 198.0 uM, Number of replicates 2.0, Standard deviation 2.54780683245229 %",5.39%
O=C(Nc1nc2c(Cl)cccc2s1)c1cc(Cl)ccc1NS(=O)(=O)c1ccc(Oc2ccccc2Cl)cc1,inhibition,[2],21.8%
CN(C)Cc1cn(C2CN(C(=O)c3ccc4[nH]ncc4c3)C2)nn1,inhibition,"PRVABC59, Concentration 49.5 uM, Number of replicates 2.0, Standard deviation 0.4789294753199647 %",-3.5%
same,inhibition,"PRVABC59, Concentration 99.01 uM, Number of replicates 2.0, Standard deviation 2.1084825820906183 %",-2.89%
same,inhibition,"PRVABC59, Concentration 198.0 uM, Number of replicates 2.0, Standard deviation 1.9495019194256606 %",-1.3%
O=C(Nc1cc(Cl)nc(Cl)n1)c1cc(Cl)ccc1NS(=O)(=O)c1ccc(Oc2ccccc2Cl)cc1,inhibition,[2],21.3%
O=C(NCCc1c[nH]cn1)[C@@]1(c2ccc(F)cc2)CCCNC1,inhibition,"PRVABC59, Concentration 50.0 uM, Number of replicates 2.0, Standard deviation 1.8533531884648646 %",1.12%
same,inhibition,"PRVABC59, Concentration 100.0 uM, Number of replicates 2.0, Standard deviation 1.243259032729753 %",2.94%
same,inhibition,"PRVABC59, Concentration 200.0 uM, Number of replicates 2.0, Standard deviation 0.45116199355607794 %",1.26%
O=C(c1cc(Cl)ccc1NS(=O)(=O)c1ccc(Oc2ccccc2Cl)cc1)N1CCN(Cc2ccc(C(F)(F)F)cc2)CC1,inhibition,[2],34%
O=Cc1ccc(N2CCC(C(=O)Nc3ccc([N+](=O)[O-])c4ccccc34)CC2)cc1,inhibition,[1],23.8%
c1ccc2c([C@H]3CCN(Cc4cnns4)C3)c[nH]c2c1,inhibition,"PRVABC59, Concentration 49.5 uM, Number of replicates 2.0, Standard deviation 2.0058417718561588 %",-0.381%
same,inhibition,"PRVABC59, Concentration 99.01 uM, Number of replicates 2.0, Standard deviation 1.7733417166189047 %",2.75%
same,inhibition,"PRVABC59, Concentration 198.0 uM, Number of replicates 2.0, Standard deviation 1.6486370311889924 %",9.91%
CC(C)(C)N(C[C@H](O)c1ccc(O)c(CO)c1)C(=O)C1CCN(c2ccc(C=O)cc2)CC1,inhibition,[1],22.6%
O=Cc1ccc(N2CCC(C(=O)N[C@@H](Cc3ccccc3)c3ccccc3)CC2)cc1,inhibition,[1],5.89%
NS(=O)(=O)c1cccc(CN2CC[C@H](c3c[nH]c4ccccc34)C2)c1,inhibition,"PRVABC59, Concentration 49.5 uM, Number of replicates 2.0, Standard deviation 2.3207736870822324 %",1.04%
same,inhibition,"PRVABC59, Concentration 99.01 uM, Number of replicates 2.0, Standard deviation 2.4391372527131354 %",7.2%
same,inhibition,"PRVABC59, Concentration 198.0 uM, Number of replicates 2.0, Standard deviation 2.682205208746011 %",16.8%
O=C(NCCSCc1ccccc1)c1cc(Cl)ccc1NS(=O)(=O)c1ccc(Oc2ccccc2Cl)cc1,inhibition,[2],20.5%
COc1cc(CN2CC(O)C2)ccc1OC[C@@H](O)CN1CCC(O)CC1,inhibition,"PRVABC59, Concentration 49.5 uM, Number of replicates 2.0, Standard deviation 2.4221812383824144 %",0.189%
same,inhibition,"PRVABC59, Concentration 99.01 uM, Number of replicates 2.0, Standard deviation 2.075192767353743 %",0.785%
same,inhibition,"PRVABC59, Concentration 198.0 uM, Number of replicates 2.0, Standard deviation 0.11959307349566267 %",-0.75%
COc1cccc(Cn2cc(C3CCNCC3)c(C)n2)n1,inhibition,"PRVABC59, Concentration 49.5 uM, Number of replicates 2.0, Standard deviation 0.37592932105510146 %",-1.6%
same,inhibition,"PRVABC59, Concentration 99.01 uM, Number of replicates 2.0, Standard deviation 0.3669357736387558 %",-1.01%
same,inhibition,"PRVABC59, Concentration 198.0 uM, Number of replicates 2.0, Standard deviation 1.0468461049068225 %",0.825%
O=C(NCc1ccccc1)c1cc(O)ccc1NS(=O)(=O)c1ccc(Oc2ccccc2Cl)cc1,inhibition,"PRVABC59, Concentration 49.5 uM, Number of replicates 2.0, Standard deviation 1.023228375505538 %",-9.7%
O=Cc1ccc(N2CCC(C(=O)NCc3ccccc3-n3cccn3)CC2)cc1,inhibition,"PRVABC59, Concentration 10.0 uM, Number of replicates 1.0",21.4%
O=C(NCc1ccc(OC(F)(F)F)cc1)c1cc(Cl)ccc1NS(=O)(=O)c1ccc(Oc2ccccc2Cl)cc1,inhibition,[2],32.5%
Cc1cc(CO)c2cccc(Cc3ccccc3C(=O)N3CCCNCC3)c2n1,inhibition,"PRVABC59, Concentration 99.9 uM, Number of replicates 2.0, Standard deviation 2.6741643486934055 %",-2.96%
Cc1cc(CO)c2cccc(Cc3cccc(NC(=O)Cc4c(C)c5c(=O)[nH]n(C)c5[nH]c4=O)c3)c2n1,inhibition,"PRVABC59, Concentration 49.95 uM, Number of replicates 2.0, Standard deviation 0.9685022100006885 %",29.7%
same,inhibition,"PRVABC59, Concentration 99.9 uM, Number of replicates 2.0, Standard deviation 0.32116033435216484 %",54.1%
CC(C)(C)N(Cc1cccnc1)C(=O)C1CCN(c2ccc(C=O)cc2)CC1,inhibition,[1],25%
O=C1NCCC[C@@H]1CNS(=O)(=O)c1ccc(Oc2ccccc2Cl)cc1,inhibition,"PRVABC59, Concentration 49.5 uM, Number of replicates 2.0, Standard deviation 1.4119096470460955 %",8.27%
same,inhibition,"PRVABC59, Concentration 99.01 uM, Number of replicates 2.0, Standard deviation 5.0537068848428035 %",8.71%
same,inhibition,"PRVABC59, Concentration 198.0 uM, Number of replicates 2.0, Standard deviation 1.1434777175793638 %",7.13%
O=C(Nc1ncc(Br)cc1O)c1cc(Cl)ccc1NS(=O)(=O)c1ccc(Oc2ccccc2Cl)cc1,inhibition,[2],55.3%
O=C(c1cc(Cl)ccc1NS(=O)(=O)c1ccc(Oc2ccccc2Cl)cc1)N(CCCO)Cc1ccncc1,inhibition,[2],12.7%
COc1ccccc1C[C@H](C)N(C)C(=O)C1CCN(c2ccc(C=O)cc2)CC1,inhibition,[1],22.2%
O=C(Nc1cc(F)c(Br)c(F)c1)c1cc(Cl)ccc1NS(=O)(=O)c1ccc(Oc2ccccc2Cl)cc1,inhibition,[2],23.4%
Cc1cc(CO)c2cccc(Nc3nonc3C(N)=O)c2n1,inhibition,"PRVABC59, Concentration 49.95 uM, Number of replicates 2.0, Standard deviation 1.4175935710362748 %",4.15%
same,inhibition,"PRVABC59, Concentration 99.9 uM, Number of replicates 2.0, Standard deviation 2.0633301575187155 %",4.07%
